Measured values: the supplement of paper PMC10126150
Values marked as one replicate rest on one cluster of the flow cell; about a third of the high ones do not repeat.

Tested on: ATP
Assay: switch fluorescence ratio, 500 uM ATP over buffer (Cy3 cluster intensity, sum of 5 cycles each) (fold (ratio)); higher = stronger signal-on switching upon ATP binding; sequences stand for … in TCGTCGGCAGCGTCAGATGTGTATAAGAGACAGTTTTTTTTTTTTTTTTTTTTTTTTT…TC
Details: aptamer strand: ATP DNA aptamer (quencher-CACCTGGGGGAGTATTGCGGAGGAAGG + anchor), 100 nM annealed; ATP concentration: 500 uM; one replicate
Summary of the method: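 Clusters with intensities outside 100-1000 RFU were excluded. The remaining Cy3-labelled switching-strand clusters on a modified Illumina MiSeq flow-cell had been annealed to 100 nM quencher-labelled ATP aptamer and imaged in selection buffer, then after 15 min with 500 uM ATP at 22 °C, for five cycles separated by NaOH stripping and re-annealing. The fluorescence ratio, averaged per switch-domain sequence, is each cluster's summed target-cycle Cy3 intensity over its summed buffer-cycle Cy3 intensity.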
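Also: ATP exposure 15 min at 22 °C before imaging.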

| Sequence | switch fluorescence ratio |
| --- | --- |
| AGTGGCGACG | 0.98 |
| TTTGGATTG | 0.956 |
| CGGAAGAGTG | 0.938 |
| GCTTAAGACG | 0.958 |
| TGTTTAGCAG | 1.14 |
| GACGCTTACG | 0.925 |
| GCGCGGATGG | 1.01 |
| GGATTTTTA | 1.02 |
| TGCCACGTCA | 0.947 |
| CAAAACGAC | 1.08 |
| CGCTGGTCGA | 1.09 |
| AATAAGGATC | 0.959 |
| CGGGAATTC | 1.03 |
| ATCGGCCAGA | 1.02 |
| GCGGCTAGAG | 0.985 |
| TTATCCAACC | 0.967 |
| GGGCCTGTGT | 0.978 |
| GGGTTAGTGC | 0.969 |
| AAAGCTAGCG | 0.945 |
| TATGCCAAAG | 0.998 |
| GAGAAGGTGG | 1.07 |
| ATTCGGTTCG | 1.03 |
| GCGGGGAAGC | 1 |

| Sequence | switch fluorescence ratio |
| --- | --- |
| TTGAGGGGAC | 0.97 |
| TTGCGGTGTC | 1.05 |
| AGAGGTAGTC | 1.05 |
| AGTAAGGTGC | 1.28 |
| TGTCGACCTT | 1.07 |
| TGACTATATG | 0.907 |
| CGGACGGTTT | 0.955 |
| GGTCGATTGC | 1.01 |
| ATATGGTGGA | 1.01 |
| TCTGATAGGC | 1.05 |
| AGGGGTTCCC | 1 |
| CAAGAGTCGG | 1 |
| CAATACTGCG | 1.21 |
| GGCGGTATAC | 1.97 |
| GACTTCTTCT | 0.977 |
| AGCAAAAAAA | 0.997 |
| AGTCGTCGCA | 0.996 |
| AGAAGTCGGC | 1.07 |
| AGCCATTATC | 1.02 |
| ATCATGAGTG | 1.04 |
| ACGCTAGGCA | 1.11 |
| AACCGAGCTG | 1.38 |
| AGGATCGCCG | 1.01 |

| Sequence | switch fluorescence ratio |
| --- | --- |
| GGGACGAAGG | 0.902 |
| GAACTTTGTA | 1.02 |
| CGTCGAGATC | 0.963 |
| GAAGGACGCC | 1.04 |
| CCATTTAG | 0.989 |
| GTGCAGTTGG | 0.993 |
| GGTATTCGCC | 0.973 |
| ACCTCAGCGC | 1.43 |
| ACTTAGAAGA | 1.01 |
| CCTTACTCA | 1.64 |
| TAGAGGCA | 0.986 |
| TTCAAAAGGC | 1 |
| ATGGTGTTAC | 1.02 |
| CGGCGTAGCA | 0.938 |
| ATTTTTGCG | 0.998 |
| AAACAACGTA | 1.05 |
| TGGCTGGAGC | 1.03 |
| GCGGCAAGTT | 1.03 |
| GATCTTCTAA | 0.993 |
| AAATCATGCC | 1.04 |
| GGCCGTTAGG | 1.08 |
| GATGGGTCAG | 1.01 |
| AGTTCGGCTT | 1.05 |

| Sequence | switch fluorescence ratio |
| --- | --- |
| AAAAGACAC | 0.958 |
| TTGGCTTGAA | 0.996 |
| CTGGCGAAT | 0.965 |
| CGTTTAAATT | 0.931 |
| TTTAGCGGAG | 0.971 |
| GATGATGTAG | 0.996 |
| TGTTGGGTTA | 0.991 |
| GGAAGCCGGG | 1.18 |
| ATGCGTGTGT | 1.05 |
| TGCTATAACG | 0.962 |
| AAAGACAAAA | 0.942 |
| GGACTGATCG | 0.994 |
| TGTTAATGT | 1.02 |
| CATCGCAGAA | 1.33 |
| CGCACTTTCT | 1.05 |
| GCGGTTCAGG | 1.03 |
| ACTCGTTCGT | 1.05 |
| GACCGCCTCG | 1.15 |
| AGCAACATCG | 1.03 |
| AAAGGTTAA | 1.03 |
| CCTCGATCGG | 0.993 |
| TGGCAGGGG | 1.07 |
| GGCGACTGTA | 0.972 |

| Sequence | switch fluorescence ratio |
| --- | --- |
| CAGCGGGTGG | 1.05 |
| GGGGACGTGA | 1.02 |
| GATTTCTGTT | 0.963 |
| CAAACTCAGG | 1.11 |
| ATGTAAGGAA | 1.03 |
| AATAGACTCG | 0.983 |
| TGGGCTGCCT | 0.952 |
| GGGTCTTTAC | 1.04 |
| TAGCATAAGT | 1.04 |
| GTCGCCCTTA | 0.973 |
| TCCATGCCCT | 1.04 |
| TGCCTCGCAA | 2.59 |
| ACGAGCCTAT | 1.05 |
| GTGATTGTCT | 0.99 |
| AGAAAGGCCA | 1.03 |
| TCGGTCCATT | 0.984 |
| CGTACCGAGG | 1.06 |
| CTGTTAACGT | 1.02 |
| GCATACTTGG | 1.02 |
| GCCATCGGGC | 1.01 |
| TATTTGGAAG | 1.06 |
| TATAACTACA | 1.07 |
| CGTGCAGTGC | 2.29 |

| Sequence | switch fluorescence ratio |
| --- | --- |
| TGGCTGGTCG | 0.983 |
| CCTAGATAAG | 0.964 |
| TTGTGAAACT | 5.41 |
| GATAAAGCGT | 1.01 |
| AAAGATGCGT | 0.966 |
| ATCAATGATT | 0.997 |
| CGCCCCCACA | 1.22 |
| AAAGTTTTCT | 0.957 |
| ATTAATGAGA | 0.984 |
| CGGAACGGGT | 0.99 |
| GACCAAGTAT | 0.989 |
| TGGTCTCTG | 0.982 |
| CTAGAATCTT | 0.957 |
| GGCAGAGTAG | 0.968 |
| ACATCATATG | 1.03 |
| TCAATGAGGT | 0.996 |
| TATTACCTAC | 1.31 |
| ATCTCAGGCA | 1.02 |
| TAGACATTTA | 0.973 |
| AAGGTCGTTG | 0.993 |
| GGTGTGACTT | 1.02 |
| GGACTCTAAG | 0.951 |
| ATTGGCCTAC | 1 |

| Sequence | switch fluorescence ratio |
| --- | --- |
| TACTCGGGTC | 1.02 |
| CTATCCAACG | 1.05 |
| ATGTAGGTGC | 1.05 |
| AGGAGCCGAG | 0.993 |
| CCTGTGCCAT | 2.21 |
| GGATCTTTGT | 0.992 |
| GACCGGTTAC | 1.15 |
| TATTATTGAA | 0.997 |
| TTTGCTAGCG | 0.974 |
| TAAAACTGGT | 1.07 |
| ACTATTCGAC | 1.04 |
| GGTGAGGAGT | 1 |
| TCGTTAATCG | 0.994 |
| TAGTTAGCG | 1.04 |
| GGTCCGCTAG | 1.63 |
| TCACATTAGT | 1.01 |
| ATGACGCTCG | 1.02 |
| TGAAAACTCG | 1.04 |
| ATTACCATGC | 1.12 |
